Among all 52,000 compounds or so, about 4,300 (8.3%) were called active. Rule as the data show it: active = survival mostly below about 52% (no sharp cut-off); inactive = mostly above about 56%. The list shows a part of the results.

For this test, the system named is DeltatarO mutant. Nature of the test: growth inhibition of S. aureus wild type versus tarO mutant, primary screen, teichoic acid synthesis inhibitors, RN4220, OD600 (AID 463173). As to conditions: OD600, 18 h, stronger effect = lower value, screened at 18.75 µg/mL (by protocol).
Turning to `CCc1ccc(-n2nnc(-c3nc(-c4ccccc4)no3)c2C)cc1`, the survival is inactive: 99%.
`COc1ccc(CCNC(=O)c2ccc3c(c2)N(Cc2cccc(C)c2)C(=O)c2ccccc2S3(=O)=O)cc1OC`: the survival is inactive: 77%.
Take `C1=CCC(CN2CCN(CC3CC4C=CC3C4)CC2)CC1` (stereo not given): the survival is inactive: 76%.
The same measure for `CCn1cc(S(=O)(=O)c2cc(C)cc(C)c2)c(=O)c2cc(F)c(N3CCOCC3)cc21`: inactive: 72%; for `COc1ccccc1NC(=O)CSc1nnc(-c2cccc(Cl)c2)o1`: inactive: 80%.
As for `CCOc1ccccc1-c1nc(-c2ccc(-c3ccccc3)nc2OCC)no1`, the survival was active: 4%.
As to `COc1ccc2nc(N(Cc3cccnc3)C(=O)CCc3ccccc3)sc2c1`, the survival was inactive: 78%.
For the compound `Cc1ccc(Nc2c3c(nc4nncn24)CCC3)cc1`, the survival is inactive: 62%.
The same measure for `COc1ccccc1Nc1c2c(nc3ccc(NC(=O)/C=C/c4cccc(OC)c4OC)cc13)CCCC2`: inactive: 74%.
With `Cc1ccc(S(=O)(=O)N2CCC(Oc3ccc(-n4cnnn4)cc3)CC2)cc1`, the survival was inactive: 72%.
Turning to `COc1ccc(CC(=O)Nc2ccc3nc(Nc4cccc(Cl)c4)cc(C)c3c2)cc1OC`, the survival was active: 46%.
As for `COc1cc2c(cc1OC)C1=C(C#N)CN(C3CCCCC3)CN1CC2`, the figure is inactive: 83%; as for `COc1ccc(CNCCSc2nnnn2-c2ccccc2)cc1`, inactive: 47%; as for `COc1ccccc1-n1cc(-c2ccc(C)cc2)nc1S(=O)(=O)CC(=O)Nc1ccccc1C(F)(F)F`, inactive: 111%.
Turning to `O=C(c1cccc(Cl)c1)n1nc(-c2ccco2)nc1NCc1cccs1`, the survival was inactive: 78%.
Take `O=C(CNC(=O)c1ccccc1Cl)OCc1cc(=O)n2ccsc2n1`: the survival was inactive: 80%.
Take `Brc1csc(CN2CCc3nc(Nc4ccccc4)ncc3C2)c1`: the survival was inactive: 83%.
Take `Cc1cccc(NC(=O)c2cc(S(=O)(=O)N3CCCCC3)c[nH]2)c1C`: the survival is inactive: 87%.
With `COc1cc(CN(C(=O)c2cc3ccccc3oc2=O)C2CCS(=O)(=O)C2)cc(OC)c1OC` (stereo not given), the survival is inactive: 52%.
In the case of `Cc1cccc(Cn2c(SCc3ccc(C(=O)N4CCCCCC4)cc3)nc3ccncc32)c1`, the survival was inactive: 128%.
With `Cc1cc(C)cc(-n2cnc3cc(C(=O)NCCc4ccccc4)ccc32)c1`, the survival was inactive: 78%.
Consider `Cc1ccc(C)c(N(C)C(=O)c2cn(C)c(=O)c3ccccc23)c1`, for which the survival was inactive: 67%.
Take `CCOC(=O)c1c(Oc2ccc(C(=O)OC)cc2)nnc(-c2ccccc2)c1-c1ccccc1`: the survival is inactive: 74%.
Regarding `Cc1ccc(CCNC(=O)CCc2cn(Cc3ccccc3C)c3ccccc23)cc1`, the survival was inactive: 68%.
Regarding `COc1cc(NC(=O)Cn2c(SCc3ccc(F)cc3)nc3cccnc32)cc(OC)c1`, the survival is inactive: 120%.
With `CCN(C(=O)Cn1c(C(=O)OC)cc2oc3ccccc3c21)c1cccc(C)c1`, the survival was inactive: 53%.
As for `c1ccc(C(c2nnnn2C2CCCC2)N2CCN(c3ccccc3)CC2)cc1` (stereo not given), the figure is inactive: 102%; as for `Cc1cc(C(F)(F)F)n2nc(-c3ccc(Br)cc3)cc2n1`, inactive: 66%.
Turning to `CN1CCN(CC(=O)NCCc2ccc(F)cc2)CC1`, the survival is inactive: 83%.
For `CCCCOc1ccc(-c2nn(-c3ccccc3)cc2C2NC(=O)NC(C)=C2C(=O)OCC)cc1` (stereo not given), the survival is inactive: 75%.
In the case of `Cc1ccc(CNC(=O)c2ccc3c(c2)nc(C)n3-c2cccc(F)c2)cc1`, the survival was inactive: 84%.
In the case of `CCOc1ccc(NC(=O)CSC2=Nc3ccccc3C3=NC(CCC(=O)NCc4ccccc4)C(=O)N23)cc1` (stereo not given), the survival was inactive: 98%.
Take `Cc1ccc(CSc2nc3ccc(NC(=O)COc4ccccc4)cc3s2)cc1`: the survival is inactive: 87%.
In the case of `COc1ccc(OCC(=O)NCc2ccc3c(c2)CCN3C(=O)c2ccccc2)cc1`, the survival is inactive: 70%.
As to `COc1ccccc1N1CCN(c2ncnc3c2cnn3-c2cc(Cl)ccc2C)CC1`, the survival was inactive: 124%.
With `CCc1ccc(C(=O)c2cn(CC(=O)Nc3cccc(OC)c3)c3ccc(OC)cc3c2=O)cc1`, the survival was inactive: 65%.
In the case of `Cc1cc2oc(C(=O)Nc3ccc(S(N)(=O)=O)cc3)cc(=O)c2cc1C`, the survival was inactive: 70%.
On to `O=C(NCCc1ccccc1)c1cnc2sc(N3CCCCCC3)nn2c1=O`, for which the survival is inactive: 90%.
With `Cc1ccc(C(=O)N2c3ccc(C)cc3C(C)(c3ccccc3)CC2(C)C)cc1` (stereo not given), the survival was active: 4%.
In the case of `C=CCNC(=O)CSc1nc(-c2ccco2)cc(C(F)(F)F)n1`, the survival is inactive: 67%.
With `CCCCCn1c(=O)[nH]c2cc(C(=O)Nc3cc(C)cc(C)c3)ccc2c1=O`, the survival was inactive: 88%.
Regarding `CN(C)S(=O)(=O)N(CC(=O)NCCSCc1ccccc1)c1ccccc1`, the survival is inactive: 66%.
With `Cc1cccc(N2C(=O)N(CC(=O)C(C)(C)C)c3ccccc3S2(=O)=O)c1C`, the survival was inactive: 81%.
Take `Cc1ccc(C)c(NC(=O)CN2CCCN(Cc3cccc(Cl)c3)S2(=O)=O)c1`: the survival was inactive: 95%.
Turning to `CC[n+]1c(C)oc2ccc(OC)cc21`, the survival was inactive: 64%.
As for `Cn1nc(C(=O)NCc2ccc(Cl)cc2)c2c1-c1ccccc1S(=O)(=O)C2`, the survival is inactive: 66%.
The same measure for `Cc1ccc(OCc2nc(-c3ccc(C(=O)N4CCN(c5ccccc5F)CC4)cc3)oc2C)cc1`: inactive: 79%; for `COc1ccc(CNC(=O)Cn2c(SCC(=O)Nc3ccc(OC)cc3)nc3ccccc32)cc1`: inactive: 89%; for `Cc1cccc(-n2ncc(C(=O)N3CCN(c4ccc(Cl)cc4)CC3)c2C2CCN(C(=O)OC(C)(C)C)CC2)c1`: inactive: 82%.
With `CCc1ccc2nc(N(CCN(CC)CC)C(=O)c3ccco3)sc2c1`, the survival was inactive: 54%.
`Cc1ccc(NC(=O)c2ccc(-c3cccc(Cl)c3C)o2)cc1`: the survival was active: 1%.
For the compound `COc1ccc(OC)c(CNC(=O)c2cc3c(-c4ccc(OC)c(OC)c4)nn(C)c3s2)c1`, the survival is inactive: 82%.
With `CCNC(=S)N1CCC(C(=O)c2ccc(Cl)cc2)CC1`, the survival is inactive: 84%.
On to `COc1ccc(C2C(C#N)=C(N)Oc3c2ccc2cccnc32)cc1` (stereo not given), for which the survival is inactive: 103%.
`COC(=O)c1ccc(OCC2c3cc(OC)c(OC)cc3CCN2C(=O)Cc2ccc(OC)cc2)cc1` (stereo not given): the survival was inactive: 79%.
For the compound `CCc1ccc(Sc2cc(C(=O)NCc3cccc(OC)c3)c3ccccc3n2)cc1`, the survival was inactive: 80%.
Take `COc1ccc(C2NC(=O)N(C)C3=C2C(=O)N(c2cccc(Cl)c2)C3)cc1` (stereo not given): the survival was inactive: 61%.
For the compound `CCOc1ccc(N2CC(NC(=O)C(=O)c3c[nH]c4ccccc34)CC2=O)cc1` (stereo not given), the survival was inactive: 67%.
As for `CCn1c(=O)cc(SCC(=O)NCc2ccc(F)cc2Cl)c2ccccc21`, the survival was inactive: 85%.
`Cc1cccc(NC(=O)CSc2cn(CC(=O)N3CCCCCC3)c3ccccc23)c1`: the survival is inactive: 104%.
The same measure for `Cc1cc(OC(C)C(=O)Nc2c(C(=O)c3ccc(F)cc3)oc3ccccc23)ccc1Cl` (stereo not given): inactive: 86%.
As for `CCc1ccc(Sc2cc(C(=O)NCc3ccccc3OC)c3ccccc3n2)cc1`, the survival is inactive: 69%.
As for `CCOc1ccc(C(=O)/C=C/c2cn(CC(O)CN3CCCCCC3)c3ccccc23)cc1` (stereo not given), the figure is active: 1%; as for `Cc1ccccc1C(=O)Nc1cc2c(cc1N1CCOCC1)n(C)c(=O)n2C`, inactive: 83%.
With `Cc1cc(C)c(S(=O)(=O)Nc2ccc(-c3ccc(N4CCC(C)CC4)nn3)cc2)cc1C`, the survival is inactive: 76%.
As to `C=CCNC(=O)c1cc2c(=O)n3cccc(C)c3nc2n(CCN2CCOCC2)c1=N`, the survival is inactive: 103%.
Take `Cc1cccc(C)c1Nc1c(-c2ccccc2F)nc2cccc(C)n12`: the survival is active: 6%.
The same measure for `CC(C)CCNC(=O)C1CCN(Cc2ccccc2O)CC1`: inactive: 93%.
Consider `Cc1cc2nnc(SCc3ccc(F)cc3)n2c2ccccc12`, for which the survival was active: -1%.
As for `CC(C)CCn1c(=O)c2cccnc2n(CC(=O)Nc2ccc(F)cc2)c1=O`, the survival is inactive: 77%.
As for `COc1cccc(-c2cc(C(=O)Nc3c(C)nn(Cc4ccccc4Cl)c3C)no2)c1`, the survival is active: 34%.
With `COc1ccc2occ(CC(=O)Nc3ccc(S(=O)(=O)Nc4nccc(C)n4)cc3)c2c1`, the survival is inactive: 71%.
Take `Cc1ccc(CNC(=O)c2sc3nc[nH]c(=O)c3c2C)cc1`: the survival is inactive: 117%.
`C#CCn1c(C2CC(=O)N(c3ccc(OC)cc3)C2)nc2ccccc21` (stereo not given): the survival is inactive: 78%.
For `CN1CCN(C2(CNC(=O)c3ccc(C(C)(C)C)cc3)CCCCC2)CC1`, the survival was inactive: 70%.
Regarding `Cc1ccc2oc3c(c(=O)c2c1)C(c1ccc(O)cc1)N(Cc1ccc2c(c1)OCO2)C3=O` (stereo not given), the survival is inactive: 71%.
Take `CCOc1ccc(C(=O)c2cn(CC(=O)Nc3ccc(OC)cc3)c3cc4c(cc3c2=O)OCCO4)cc1`: the survival is inactive: 82%.
For the compound `CCC1(C)CC(=O)c2c(ccc3oc(C(=O)NCc4ccccc4)c(C)c23)O1` (stereo not given), the survival is active: 44%.
`COc1ccc2[nH]c(=O)c(CN(C(=O)c3cccc(Cl)c3)c3ccccc3C)cc2c1`: the survival was inactive: 71%.
On to `O=C(NCCC1=CCCCC1)C1CCN(C(=O)Cc2ccccc2)CC1`, for which the survival was inactive: 92%.
The same measure for `Cn1cccc1/C=N/NC(=O)c1ccccn1`: inactive: 77%; for `COc1ccc(CNc2nc(SCc3ccc(Cl)cc3)nc3ccccc23)cc1`: inactive: 102%; for `Cc1ccc2[nH]c3c(=O)n(N)c(C)nc3c2c1`: inactive: 79%.
As to `COc1ccc(-c2c3c(=O)n(C)c(=O)n(C)c3c3n2-c2ccccc2NC3c2ccc(OC)cc2)cc1` (stereo not given), the survival is inactive: 74%.
Regarding `Cc1ccc(NC(=O)c2cc(S(=O)(=O)N(C)C3CCCCC3)ccc2F)cc1C`, the survival is inactive: 66%.
The same measure for `COc1ccccc1C(=O)Oc1c(Sc2ccccc2)c(C)nn1C(C)(C)C`: inactive: 87%.
As for `CC(C)N(C(=O)N1CCC(c2ccccc2F)CC1)C(C)C`, the survival is inactive: 87%.
For the compound `COc1ccc(NC(=O)c2ccc(-c3nc(CSc4ccc(C)cc4)c(C)o3)cc2)cc1Cl`, the survival was inactive: 64%.
For `O=C(Nc1ccc(C(=O)N2CCN(c3cccc(Cl)c3)CC2)cc1)c1nsc2ccccc12`, the survival was inactive: 79%.
With `CCCCCN1C(C(=O)c2ccccc2)=C(NC(=O)c2ccc(OC)cc2)c2ccccc2S1(=O)=O`, the survival is inactive: 57%.

For the origin of these results see PubChem BioAssay AID463173 (ICCB-Longwood Screening Facility, Harvard Medical School, 2010).
